PubChem BioAssay (NCATS)
The inconclusive results got no clear call from the source; some entries with a clear call stand among them for comparison. Potencies of inconclusive entries are doubtful fits and often do not repeat. Active and inactive are the calls of the source. The call rests on the fitted dose curve; in most records, active means well fitted curve in the direction sought with a large enough effect; inconclusive means small, poorly fitted or top-dose-only effect, or another doubt; inactive means no such curve, though single readings can be large; an effect the other way counts as inactive or inconclusive.

Assays:
[1] = qHTS to identify inhibitors of the type 1 interferon - major histocompatibility complex class I in skeletal muscle: primary screen against the NCATS Mechanism Interrogation Plate v5.0 (MIPE) Libary (AID 1347411); settings: iHSKM cells + IFN-b, HiBiT-tagged MHC-I luminescence, 24 h; series mostly up to 45.8 µM; further: nearly all actives have a fitted effect of over 65% in size
Method in brief: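 Luminescence from CRISPR HiBit-tagged endogenous HLA-B in human myoblasts reported MHC class I level after 24 h of IFN-beta (4 ng/ml) plus compound. Compounds ran as 11-point 1:3 series, top 46 uM final.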

[2] = Primary qHTS for inhibitors of nuclear receptor binding SET domain protein 2 (NSD2) in an isogenic RCH-ACV NSD2 p.E1099K mutant (9B) (AID 1645876); further: nearly all actives have a fitted effect of over 70% in size
[3] = biological target: Glutathione peroxidase 1 (Homo sapiens) (UniProt P07203); assay: Primary qHTS Assay for Inhibitors of Recombinant Selenoprotein Glutathione Peroxidase 1 (GPX1) (AID 1845191); further: nearly all actives have a fitted effect of over 65% in size
UniProt P07203, sequence (P07203 whole entry, looked up): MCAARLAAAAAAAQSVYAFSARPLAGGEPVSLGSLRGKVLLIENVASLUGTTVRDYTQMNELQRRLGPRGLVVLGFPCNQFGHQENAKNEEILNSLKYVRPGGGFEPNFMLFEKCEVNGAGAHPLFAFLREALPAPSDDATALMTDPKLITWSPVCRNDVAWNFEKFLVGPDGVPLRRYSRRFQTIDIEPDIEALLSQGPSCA
Method in brief: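 GPX1 10 nM, GR 100 nM, GSH 1 mM, NADPH 0.5 mM, CHP 0.5 mM (final). 30-min cpd preincubation, RT. Ex340/Em450 read t=0, t=15 min.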

[4] = biological target: Phospholipid hydroperoxide glutathione peroxidase GPX4 (Homo sapiens) (UniProt P36969); assay: Primary qHTS Assay for Inhibitors of Recombinant Selenoprotein Glutathione Peroxidase 4 (GPX4) (AID 1845192); further: nearly all actives have a fitted effect of over 65% in size
UniProt P36969, sequence (P36969 whole entry, looked up): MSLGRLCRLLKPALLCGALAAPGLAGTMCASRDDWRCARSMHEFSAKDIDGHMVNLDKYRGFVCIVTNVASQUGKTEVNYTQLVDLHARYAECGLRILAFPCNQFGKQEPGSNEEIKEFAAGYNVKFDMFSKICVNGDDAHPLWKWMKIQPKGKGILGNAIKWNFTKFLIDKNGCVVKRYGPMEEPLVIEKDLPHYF
Method in brief: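 qHTS, GR-coupled: GPX4 200 nM + cpd 30 min RT → GSH 1 mM, NADPH 0.5 mM, GR 100 nM → CHP 0.5 mM start; fluor 340/450 at t0 and t15 min; no-enzyme wells as control.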

[5] = Primary qHTS for inhibitors of nuclear receptor binding SET domain protein 2 (NSD2) in an RCH-ACV wild type WT cells (2C) (AID 1645877); further: nearly all actives have a fitted effect of over 70% in size
Potency means the concentration at half of the fitted maximal effect; tags describe the fitted curve by direction and shape.

SMILES | Potency [1] | Potency [2] | Potency [3] | Potency [4] | Potency [5]
N#CCC1(n2cc(-c3ncnc4[nH]ccc34)cn2)CN(C2CCN(C(=O)c3ccnc(C(F)(F)F)c3F)CC2)C1 | inconclusive: 1.86 µM [inhibitor, full curve] | inconclusive: 16.6 µM [inhibitor, partial curve] | inconclusive: 29 µM [inhibitor, single point] | active: 20.2 µM | –
CC1(N)CCN(c2cccnc2NC(=O)c2nc(-c3ncccc3C(F)(F)F)cnc2N)CC1 | inactive | active: 16.6 µM | – | – | –
CC(C)(O)C1CCC(Nc2ccc3ncc(-c4cccc(C(F)(F)F)c4)n3n2)CC1 (stereo not drawn) | inconclusive: 8.29 µM [inhibitor, partial curve, poor fit] | inconclusive: 2.35 µM [inhibitor, full curve] | – | inconclusive: 20.2 µM [inhibitor, partial curve] | inconclusive: 1.86 µM [inhibitor, full curve]
CCc1ccc(N(CC(C)C)S(=O)(=O)c2ccc(OCC3CCOCC3)c(CO)c2)cc1 | inconclusive: 52.3 µM [inhibitor, single point] | inconclusive: 20.9 µM [inhibitor, partial curve, poor fit] | – | – | inconclusive: 16.6 µM [inhibitor, partial curve, poor fit]
C[C@@H](OC[C@@]1(c2ccccc2)CC[C@]2(CCC(=O)N2)CN1)c1cc(C(F)(F)F)cc(C(F)(F)F)c1 | inconclusive: 26.2 µM [inhibitor, single point] | active: 9.34 µM | – | – | –
O=C1CC[C@H](N2Cc3c(OCc4ccc(CN5CCOCC5)cc4)cccc3C2=O)C(=O)N1 | inactive | active: 0.0166 µM | inactive | inactive | –
N#Cc1cc2cc(CN3CCC(Nc4ncnc5sc(CC(F)(F)F)cc45)CC3)c(O)cc2n1Cc1cn[nH]c1 | inconclusive: 37 µM [inhibitor, single point] | active: 13.2 µM | inactive | – | –
O=C(/C=C/c1ccc(Cl)cc1)N1CCC2(CC1)CN(Cc1ccc(Cl)c(Cl)c1)C(=O)O2 | inconclusive: 52.3 µM [inhibitor, single point] | inconclusive: 7.42 µM [inhibitor, partial curve] | – | inactive | inconclusive: 7.42 µM [inhibitor, partial curve]
Nc1nc(OC(c2ccc(-c3cccc(F)c3)cc2)C(F)(F)F)cc(-c2ccc(C[C@@H](N)C(=O)O)cc2)n1 (stereo partly drawn) | inactive | active: 18.6 µM | – | – | active: 20.9 µM
CONC(=O)c1ccccc1Nc1cc(Nc2cc(C)nn2C(C)C)ncc1Cl | inconclusive: 20.8 µM [inhibitor, partial curve, poor fit] | inconclusive: 20.9 µM [inhibitor, partial curve] | – | inactive | inconclusive: 23.5 µM [inhibitor, single point]
